Among all 16,000 compounds or so, about 120 (0.75%) were called active. Another 4% or so got no clear call; they are omitted. Calls follow the shape of the dose curve; as a rule, active = well fitted inhibition curve with a large enough effect; inconclusive = small, poorly fitted or top-dose-only effect; inactive = no such curve, though single readings can be large or run the other way. The list shows a part of the results. Where a SMILES comes first, the peptide text is derived from it. [ ]: non-standard residue; d: D form. The star is where a group is joined. Sta = CC(C)C[C@H](N)[C@@H](O)CC(=O)O; Isovaleryl = CC(C)CC(=O)*
target: Rap guanine nucleotide exchange factor 3 (Homo sapiens) (UniProt O95398); experiment: Validation qHTS for antagonist of cAMP-regulated guanine nucleotide exchange factor 3 (EPAC1); conditions: EPAC1 Rap1B-BODIPY-GDP exchange, fluorescence; series mostly up to 150 µM; activity change, negative = inhibition: at the top concentration; also: nearly all actives have a fitted effect of over 75% in size;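 as to activity change, negative = inhibition: plate controls were DMSO for no effect and ATA control for full effect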
Sequence of UniProt O95398 (O95398 whole entry, looked up): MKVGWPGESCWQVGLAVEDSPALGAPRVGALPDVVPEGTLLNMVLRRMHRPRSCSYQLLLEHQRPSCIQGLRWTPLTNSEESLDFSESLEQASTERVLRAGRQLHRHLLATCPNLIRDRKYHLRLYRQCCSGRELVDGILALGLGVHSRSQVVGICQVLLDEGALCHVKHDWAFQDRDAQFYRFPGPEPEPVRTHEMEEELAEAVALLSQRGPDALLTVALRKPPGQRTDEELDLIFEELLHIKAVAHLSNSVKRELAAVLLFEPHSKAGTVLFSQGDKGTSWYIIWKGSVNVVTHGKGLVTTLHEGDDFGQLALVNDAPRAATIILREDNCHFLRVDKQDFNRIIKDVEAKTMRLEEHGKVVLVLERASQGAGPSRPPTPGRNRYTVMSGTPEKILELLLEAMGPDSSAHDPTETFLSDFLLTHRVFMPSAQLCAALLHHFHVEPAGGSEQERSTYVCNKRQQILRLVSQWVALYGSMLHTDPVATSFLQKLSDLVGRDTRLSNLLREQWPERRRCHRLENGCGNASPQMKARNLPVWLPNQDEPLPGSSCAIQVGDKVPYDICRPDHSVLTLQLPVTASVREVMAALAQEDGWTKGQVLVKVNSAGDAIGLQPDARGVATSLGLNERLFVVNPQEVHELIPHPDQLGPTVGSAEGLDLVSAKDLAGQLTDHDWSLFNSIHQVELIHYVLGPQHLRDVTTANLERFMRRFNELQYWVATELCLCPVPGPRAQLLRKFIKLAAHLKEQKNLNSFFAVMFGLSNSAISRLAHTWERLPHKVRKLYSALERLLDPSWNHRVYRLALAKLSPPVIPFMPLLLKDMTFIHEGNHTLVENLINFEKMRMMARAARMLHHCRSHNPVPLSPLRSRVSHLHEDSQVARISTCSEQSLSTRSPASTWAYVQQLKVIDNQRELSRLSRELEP
How it was run: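 Nucleotide exchange followed as fluorescence loss when BODIPY-GDP leaves Rap1B (480 nm excitation, 540 nm emission), read at 5 min intervals over 30 min. Reaction: 100 nM EPAC1, 250 nM RAP1B-BODIPY-GDP, 50 uM GDP; ATA and DMSO define normalization.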
Potency is read from the fitted curve at half-maximal effect.

Activity change, negative = inhibition, inactive:
Cc1cc2nc(N3CCCN(Cc4cccn4-c4ncccn4)CC3)nc(C)c2cc1C 5.09%, CCOC(=O)C1CCCN(C(=O)c2cnn(-c3ncc4c(n3)-c3ccccc3CCC4)c2C2CC2)C1 (configuration not stated) 6.27%, Cc1noc(C)c1-c1ccc2ncnc(N3CCC(C(=O)O)CC3)c2c1 1.48%, Clc1ccccc1-c1nccc(-n2ccnc2)n1 28.9%, CC12CCC(CC1)C(C)(C)O2, Cc1cccc(CNc2ncnc3ccc(-c4ccc(C(=O)N(C)C)cc4)cc23)c1 11.4%, CC(=O)Nc1ncc([N+](=O)[O-])s1 18.9%, CN(C)C1C(=O)C(C(N)=O)=C(O)[C@@]2(O)C(=O)C3=C(O)c4c(O)ccc(Cl)c4C(O)[C@H]3C[C@@H]12 (some centres not stated) -4.48%, O=S(=O)(NCc1nnc2n1CCN(Cc1ccccc1Cl)CC2)c1ccccc1 14.4%, CS(=O)(=O)Nc1cccc(-c2cc(NCc3cccs3)ncn2)c1 11.7%, Cc1cc2nc3c(=O)[nH]c(=O)nc-3n(CC(O)C(O)C(O)CO)c2cc1C (configuration not stated) 444%, CO[C@@]1(NC(=O)CSC[C@@H](N)C(=O)O)C(=O)N2C(C(=O)O)=C(CSc3nnnn3C)CS[C@@H]21 -21.9%, COc1c(O)cccc1O 27.7%, CCC1CN2CCc3cc(OC)c(OC)cc3C2CC1CC1NCCc2cc(OC)c(OC)cc21 (configuration not stated) 428%, Cc1ccccc1C1(CC(=O)N2CCC[C@H]2C(N)=O)CC(=O)N(C2CCCC2)C1=O (some centres not stated) 11.8%, NCCNC(=O)c1ncsc1-c1cccc(F)c1 -0.267% [at 75.8 µM], Cc1cc(CC(=O)O)n(C)c1C(=O)c1ccc(Cl)cc1, COc1ccccc1N1CCN(CCCCNS(=O)(=O)c2cccc3c(N(C)C)cccc23)CC1 1.71% [at 75.8 µM], Cc1ccc(C(=O)O[C@H](C(=O)O)[C@@H](OC(=O)c2ccc(C)cc2)C(=O)O)cc1 (tested in a mixture with another compound) -2.81% [at 75.8 µM], O=C(O)C1=CCCNC1, Cc1ccccc1C(=O)NC(C)c1nnc2n1CCN(Cc1ccccc1F)CC2 (configuration not stated) -2.79%, COc1ccc2cc(C(C)C(=O)O)ccc2c1 (configuration not stated) 10.3%, COC(=O)C1N[C@@H]([C@@H](NC(=O)COc2ccccc2)C(=O)Nc2ccc(OC)cc2)SC1(C)C (some centres not stated) 13.8%, O=S(=O)(O)c1ccc2nc(-c3ccccc3)[nH]c2c1 20.8%, CC(=O)N1C[C@H](O)C[C@H]1C(=O)O 5.96%, Cc1nc2sccn2c1CN1CCOc2ccc(CN3C[C@@H](C)O[C@@H](C)C3)cc2C1 15%, CN(C)C(=O)Nc1ccc(Cl)c(Cl)c1 19.6%, O=C1c2ccccc2CN2C(=O)c3ccccc3CN12 14%, Cc1noc(C)c1-c1nc(NCc2cccnc2)c2ccccc2n1 -7.1%, O=c1cc(-c2ccc(O)cc2)oc2cccc(O)c12 2.73%, COc1ccc(C(=O)N2CCC3(CC2)CN(C(=O)Nc2ccccc2)C3)cc1 18.5%, Cc1noc(C)c1C(=O)N1CCC2(CC1)CN(c1ccccn1)C2 -5.76%, CC#CCOC(=O)C1=CCCN(C)C1, CC(C)(C)c1onc(OCP(=O)(O)O)c1CC(N)C(=O)O (configuration not stated), COc1ccc(CN2CCOc3ccc(CN4CCC(O)CC4)cc3C2)c(OC)c1OC -0.0331%, CC(=O)N1CCC[C@@]2(CCN(Cc3ccccc3)C2)C1 3.56%, Cc1cc(-c2ccnc(-n3ncc(C(=O)NCC4COCCO4)c3C3CC3)n2)c(C)s1 (configuration not stated) -7.72%, O=C(NCc1nnc2n1CCN(Cc1cccc(Cl)c1)CC2)c1cccc(F)c1 -1.72%, COc1ccccc1-c1ccc2ncnc(NCCNC(C)=O)c2c1 4.26%, NC1(C(=O)O)CC(C(=O)O)C1 (configuration not stated), C[C@H](CCC(=O)O)[C@H]1CC[C@H]2[C@@H]3CC[C@@H]4C[C@H](O)CC[C@]4(C)[C@H]3C[C@H](O)[C@]12C 16.8%, NC(=NCc1ccc(Cl)cc1Cl)NC(=O)c1nc(Cl)c(N)nc1N, COc1ccccc1-c1nc(NCCN2CCOCC2)c2ccccc2n1 8.46%, O=C(O)C1CCCN1 (configuration not stated) 8.11%, Cc1ccc2c(C)nc(N3CCCC(C(=O)NC(C)(C)CO)C3)nc2c1 (configuration not stated) -10.3%, CC1Cc2ccccc2N1NC(=O)c1ccc(Cl)c(S(N)(=O)=O)c1 (configuration not stated), CC(C)(C)[C@]1(O)CCN2C[C@H]3c4ccccc4CCc4cccc(c43)[C@@H]2C1, Nc1nc2[nH]c(=O)cnc2c(=O)[nH]1 -1.27% [at 75.8 µM], NC(=O)[C@H]1O[C@@H](O)[C@H](O)[C@@H](O)[C@@H]1O 10.7%, O=S(=O)(c1ccccc1)N1CCC[C@@]2(CCN(C(c3ccccc3)c3ccccc3)C2)C1 15.4%, [N-]=[N+]=NCCN1CCN(Cc2ccccc2)CCC1=O -7.47%, O=S1(=O)CCO[C@H]2CCCC[C@@H]2N1Cc1ccccc1F 5.08%, CCN(CC)CCNC(=O)c1cnn(-c2ncc3c(n2)-c2ccc(OC)cc2CC3)c1C 4.53%, C=C(C)C(=O)OC[C@@H]1CCC[N@+]2(C)CCCCC12 (some centres not stated) 27.4%, CCOc1ccccc1O[C@H](c1ccccc1)[C@H]1CNCCO1 12.3%, OCC1O[C@H](O)C(Cl)C(O)C1O (some centres not stated) 10.9% [at 75.8 µM], Cn1cnnc1Sc1ccc(CN2CCOc3ccc(C4=Cc5ccccc5C4)cc3C2)o1 -13%, N[C@H](Cn1ccc(=O)c(O)c1)C(=O)O 0.519%, O=C(O)C1Cc2c([nH]c3ccccc23)C(c2coc3ccccc3c2=O)N1 (configuration not stated) -5.79%, CCC(=O)c1c(O)cc(O)cc1O 18.2%, N#Cc1cccc(-c2nccc(NCc3cccs3)n2)c1 -19.3%, COCCn1c(=O)c(C)nc2cnc(N3CCNCC3)nc21 23.6%, COc1ccc(Oc2ncc3nc(-c4cccs4)c(=O)n(-c4ccccc4)c3n2)cc1 0.137%, C=CC(C)(O)CC1[C@@]2(C)CCCC(C)(C)C2CC[C@]1(C)O (some centres not stated) -20.3%, CNCC(O)c1cccc(O)c1 (configuration not stated) 15.7%, O=C(NCC(O)CO)c1c(I)c(C(=O)NCC(O)CO)c(I)c(N(CCO)C(=O)CO)c1I (configuration not stated) 11.6% [at 75.8 µM], CCOc1ccc(/C=C/C(=O)c2cccs2)cc1 7.23%, CCN(C)C(=O)Oc1cccc([C@H](C)N(C)C)c1 -3.99%, Nc1ccc(S(=O)(=O)Nc2ccnn2-c2ccccc2)cc1, CCNc1ncc2nc(C)c(=O)n(CCOC)c2n1 11.4%, COC(=O)C(c1ccccc1Cl)N1CCc2sccc2C1 (configuration not stated), Cc1ccccc1-c1nc(N2CCN(C)CC2)c2ccccc2n1 -1.62%, CCCCCCCCCCCCCCCCCC(=O)OCC(C)O (configuration not stated) -4.81%, COc1cc(/C=C(\C#N)C(N)=O)cc(CSc2nc3ccccc3s2)c1O, CC(=O)c1ccc(OCC(=O)N2CCCCC2)cc1 5.82%, COc1ccccc1-c1ccnc(-n2ncc(C(=O)N(C)CCc3ccccn3)c2C)n1 19.1%, CCOCC(O)COc1ccc(NC(=O)CC[S+](C)C)cc1 (configuration not stated) -6.92%, COc1cccc(Nc2ncc3nc(-c4cc(F)cc(F)c4)c(=O)n(CCC#N)c3n2)c1 -1.94%, Nc1nc(NCCc2ccc(O)cc2)nc2nc(-c3ccco3)nn12, CCCCCCCCCCCC(=O)N(CCO)CCO -3.76%, COc1cc(OC)c(OC)cc1CN1CCOc2ccc(CN3C[C@@H](C)O[C@@H](C)C3)cc2C1 15.5%, CC1(C)C(O)C=C[C@@]2(C)C1CC(=O)O[C@@]1(C)C3=CC(=O)OC(c4ccoc4)[C@]3(C)CCC21 (some centres not stated) -12%, COC(=O)c1ccc(O)cc1 26.6%, COc1c(-c2ccc(O)c(O)c2)oc2cc(O)cc(O)c2c1=O -17.7%, FC(F)(F)c1ccccc1-c1cncnc1Nc1ccccc1 15.4%, COc1ccc(Oc2ncc3nc(-c4ccc(OC)cc4)c(=O)n(CCC#N)c3n2)cc1 13.6%, C[C@@H]1C[C@H]2[C@@H]3C[C@H](F)C4=CC(=O)C(Cl)=C[C@]4(C)[C@@]3(F)[C@@H](O)C[C@]2(C)[C@@]1(O)C(=O)CO 4.42%, O=C(c1csnn1)N1CCC2(CC1)CN(Cc1cc(C(F)(F)F)cc(C(F)(F)F)c1)C2 4.06%, C=CCN1CCc2c(cc(O)c(O)c2Br)[C@@H](c2ccccc2)C1, Cc1ccc(SC[C@H](Cc2ccccc2)N2CC[C@@H](C)CCC2=O)cc1 0.679%, NC(=O)C1CCCN(Cc2ccc3c(c2)CN(Cc2cn[nH]c2-c2ccc(F)cc2)CCO3)C1 (configuration not stated) 11.3%, Nc1ccn([C@@H]2O[C@H](CO)[C@H](O)C2(F)F)c(=O)n1 -0.378%, COC(=O)C[C@H]1c2cc(F)ccc2S(=O)(=O)N1Cc1ccccc1 8.59%, CC(=O)N1CCN(C(=O)c2sc3ncnc(NCC4CCCO4)c3c2C)CC1 (configuration not stated) -4.54%, Cc1c(C(=O)N2CCCCC2c2cccnc2)sc2ncnc(NCc3cccs3)c12 (configuration not stated) 0.719%, Nc1nc2c(nc(Br)n2C2CC(O)C(CO)O2)c(=O)[nH]1 (configuration not stated) 13.3%, Cc1cnc(C)c(-c2ccc(F)c3c2OC(CNC(=O)Cc2c(F)cccc2F)C3)n1 (configuration not stated) 0.688%, CCOC(=O)C12CC1/C(=N/O)c1ccccc1O2 (configuration not stated) -1.93% [at 75.8 µM], CCC1CN(CCC(=O)N2CCN(c3ncccn3)CC2)Cc2cc(OC)ccc2O1 (configuration not stated) 26.2%, COCc1c(C(=O)N2CCC(c3ccccc3)CC2)cnn1-c1nccc(-c2cc(C)sc2C)n1 -3.77%, O=c1cc[nH]c(=S)[nH]1 13.5%, CCCCC/C=C\C\C=C/C=C/C=C/[C@@H](SC[C@H](N)C(=O)O)[C@@H](O)CCCC(=O)O 19.2% [at 1.57 µM], c1ccc(CCNc2nc(-c3ccccc3)cs2)cc1 -8.16%, Cc1cnc(SCc2ccccn2)nc1C1CCCN(C(=O)c2noc3c2CCCC3)C1 (configuration not stated) 12.5%, Cc1nc2cnc(N3CCNCC3)nc2n(CCc2ccccc2)c1=O -3.54%, CC(C)CC(=O)N[C@H](C(=O)N[C@H](C(=O)N[C@@H](CC(C)C)[C@@H](O)CC(=O)N[C@@H](C)C(=O)N[C@@H](CC(C)C)[C@@H](O)CC(=O)O)C(C)C)C(C)C (Isovaleryl-VV[Sta]A[Sta]-OH)

Potency, active:
COc1ccc(-c2nc3cnc(Nc4cccc(OC)c4)nc3n(Cc3cccs3)c2=O)cc1 100 µM
